Out of some 310,000 compounds screened, about 14,000 (4.5%) showed an effect of 50% or more. The effect is printed as a negative number. The list shows a part of the results.
Target: human ether-à-go-go-related gene (hERG) potassium channel (human, UniProt Q12809)
Experiment: primary screen, population patch clamp on CHO cells stably expressing hERG
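Further: peak tail current of the secondary pulse compared with the same well before compound.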

human ether-à-go-go-related gene (hERG) potassium channel, sequence (Q12809 whole entry, looked up): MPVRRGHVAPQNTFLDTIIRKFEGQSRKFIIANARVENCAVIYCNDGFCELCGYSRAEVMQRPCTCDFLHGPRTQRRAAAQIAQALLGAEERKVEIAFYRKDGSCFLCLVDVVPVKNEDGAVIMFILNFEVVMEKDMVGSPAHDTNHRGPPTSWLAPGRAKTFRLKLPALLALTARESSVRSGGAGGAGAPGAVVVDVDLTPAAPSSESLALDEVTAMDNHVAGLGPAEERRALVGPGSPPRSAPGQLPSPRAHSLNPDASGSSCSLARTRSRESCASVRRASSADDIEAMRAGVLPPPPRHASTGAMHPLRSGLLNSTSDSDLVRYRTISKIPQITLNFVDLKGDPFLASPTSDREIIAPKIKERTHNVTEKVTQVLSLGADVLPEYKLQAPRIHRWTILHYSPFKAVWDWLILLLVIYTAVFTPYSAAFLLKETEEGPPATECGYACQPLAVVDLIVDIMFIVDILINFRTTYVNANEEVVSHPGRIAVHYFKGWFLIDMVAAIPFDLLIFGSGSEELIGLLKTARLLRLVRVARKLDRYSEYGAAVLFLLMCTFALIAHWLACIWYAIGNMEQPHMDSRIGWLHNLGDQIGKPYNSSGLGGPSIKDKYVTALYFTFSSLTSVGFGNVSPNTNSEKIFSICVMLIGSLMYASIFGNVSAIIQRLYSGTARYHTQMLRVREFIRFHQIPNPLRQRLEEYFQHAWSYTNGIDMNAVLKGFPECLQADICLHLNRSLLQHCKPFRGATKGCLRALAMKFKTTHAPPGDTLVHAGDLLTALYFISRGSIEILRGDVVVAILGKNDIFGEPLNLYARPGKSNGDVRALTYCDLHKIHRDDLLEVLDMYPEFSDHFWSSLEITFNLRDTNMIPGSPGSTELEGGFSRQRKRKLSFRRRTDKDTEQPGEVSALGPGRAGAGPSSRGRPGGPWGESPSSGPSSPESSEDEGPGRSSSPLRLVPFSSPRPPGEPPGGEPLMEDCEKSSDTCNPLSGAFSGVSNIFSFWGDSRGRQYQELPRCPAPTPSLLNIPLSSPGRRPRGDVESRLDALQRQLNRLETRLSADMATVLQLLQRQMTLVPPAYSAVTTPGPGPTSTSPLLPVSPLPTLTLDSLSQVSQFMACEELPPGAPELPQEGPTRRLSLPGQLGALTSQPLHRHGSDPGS

Row | SMILES | hERG current change (%, negative = inhibition) at 10uM [%]
1 | COC(=O)c1ccc(NC(=O)CN2CCN(c3ccc(Cl)cc3)CC2)cc1 | 11.9
2 | CCc1ccc(OCCSc2nc3ccccc3n2CCC(=O)O)cc1 | 22
3 | CCCCCSc1nncc(=O)[nH]1 | -6.35
4 | N#Cc1ccccc1NC(=O)c1cccc(COc2ccc(Cl)cc2Cl)c1 | 9.3
5 | O=C1CC2CS(=O)(=O)CC2N1c1ccc(Oc2ccccc2)cc1 (centres unmarked) | -5.51
6 | COc1ccc(C(C)NC(=O)C2CCCO2)cc1OC (centres unmarked) | 4.73
7 | Cc1ccc2oc(=O)c3cc(C(=O)NCCCN4CCc5ccccc5C4)sc3c2c1 | -6.63
8 | O=C1CCNc2ccc(-c3ccccc3)cc21 | 2.93
9 | CCCCN(CC)CCNC(=O)CNC(=O)Cn1ccc2ccccc2c1=O | 4.99
10 | CN(Cc1ccccc1)c1c([N+](=O)[O-])c(=O)n(C)c2ccccc12 | -31.6
11 | Fc1ccc(C2=Nc3cccc4cccc(c34)N2)cc1 | 20.9
12 | Cc1ccnc2nc(C(=O)OCC(=O)NCc3cccc(Cl)c3)nn12 | -4.11
13 | COc1ccc(Cc2nnc(NC(=O)c3ccccc3Cl)s2)cc1OC | 16.1
14 | N#Cc1nc(-c2ccc(F)cc2)oc1NCc1ccccc1 | 5.96
15 | O=C(CCc1ccccc1)NNC(=O)c1cccc(F)c1 | 9.46
16 | O=C(NCCOc1ccccc1F)Nc1ccc(Br)cc1 | 8.52
17 | O=C(NCCCO)C(=O)NCCc1ccc(Cl)cc1 | -3.89
18 | CN1/C(=C\C(=O)C(F)F)C(C)(C)c2ccccc21 | -10.2
19 | Clc1cccc(N=NN2CCOCC2)c1Cl | 8.51
20 | Cc1c(C(=O)N/N=C/c2ccccc2)[nH]c2c([N+](=O)[O-])cccc12 | 8.67
21 | COc1ccc(-n2ncc3c2CC(C)(C)CC3NC(=O)CCC2=NNC(=O)CC2)cc1 (centres unmarked) | 15.8
22 | COc1ccc(CCNc2nc(C)cc(=O)[nH]2)cc1OC | -2.16
23 | CC(C)C(=O)Nc1ccc(NC(=O)c2ccccc2Cl)nc1 | 4.02

Row | SMILES | hERG current change (%, negative = inhibition) at 10uM [%]
24 | CC(=O)Nc1nc(-c2ccccc2)c(-c2ccccc2)o1 | -17.3
25 | CCOc1ccc(OCCCCNC(C)(C)C)cc1.O=C(O)C(=O)O | 8.98
26 | Cc1ccccc1C(=O)NC1CCN(CC(=O)Nc2ccc3c(c2)OCCO3)CC1 | 2.93
27 | Cc1ccc(-n2nc(C)c(=O)c(-c3ccccc3)c2NC(=O)C(C)C)cc1 | 10.5
28 | COc1ccc(CN(Cc2cccnc2)S(=O)(=O)c2ccc(-n3cnnn3)c(C)c2)cc1OC | -41.9
29 | COC(=O)/C=C1/SC(=NC(=O)c2ccc(F)cc2)NC1=O | -6.46
30 | CC(OC(=O)CCC(=O)c1ccccc1)C(=O)Nc1ccc(F)cc1 (centres unmarked) | -284
31 | CCOC(=O)C1C(CC)NC(=S)NC1(C)O (centres unmarked) | 23.8
32 | COc1cc2[nH]c(=S)nc(Nc3ccc(NC(C)=O)cc3)c2cc1OC | 12.3
33 | CC(=O)Nc1cccc(-c2cn3ccccc3n2)c1 | -0.548
34 | Cc1cc(C)c2c(N)c(C(=O)c3ccc(Cl)cc3)sc2n1 | 6.19
35 | Cc1ccc(-n2nnnc2SCC(=O)c2cc(C)n(-c3cc(C)on3)c2C)cc1 | 4.41
36 | COC(=O)c1ccc(OC(=O)c2ccccc2F)cc1 | 32.3
37 | COc1ccc(CC(=O)Nc2ccccc2N2CCCCC2)cc1OC | -15.5
38 | CCOC(=O)C1CCCN(c2ncnc3c2cnn3-c2ccc(Cl)cc2)C1 (centres unmarked) | -12.7
39 | Cn1nccc1NC(=O)CC(CC(=O)O)c1ccccc1 (centres unmarked) | 10
40 | CC(=O)Nc1ccc(NC(=O)C2CCCN2S(=O)(=O)c2cccc3nsnc23)cc1 (centres unmarked) | 18.9
41 | COc1cccc(NC(=O)CN(C)C(=O)CNC(=O)c2sc3ccccc3c2Cl)c1 | -15.8
42 | Cc1ccc2cc(C#N)c(NCCNC(=O)C3CCC3)nc2c1C | 1.15
43 | Cc1ccc2nc(Cl)c(CNCc3ccccc3)cc2c1 | -3.51
44 | CC[C@]12CCCN3CCc4c(n(c5ccccc45)[C@@](O)(C(=O)OC)C1)[C@@H]32 | -80.9
45 | CC1CCC(C(C)C)C(OCC(O)C[N+]2(C)CCCCC2)C1.[I-] (centres unmarked) | 19.2
46 | CC/C(=N\NC(=O)c1csc(C)c1C)c1cccs1 | 6.65

Row | SMILES | hERG current change (%, negative = inhibition) at 10uM [%]
47 | COc1ccc(S(=O)(=O)N(C)CC(=O)NC2CC2)cc1 | 2.71
48 | COc1cc2c(cc1OC)/C(=C/C(=O)N1CCOCC1)NC(C)(C)C2.Cl | 13.5
49 | CCC(C(=O)OC)n1cnc2c(nnn2-c2ccccc2)c1=O (centres unmarked) | -7.76
50 | COc1cccc(CNC(=O)CCc2ccc(OC)c(OC)c2)c1 | 10.4
51 | CCOc1ccc2nc(NC(=O)C3CCN(S(=O)(=O)c4cnc[nH]4)CC3)sc2c1 | -8.96
52 | COC(=O)CN(c1ccc(OCc2ccccc2)cc1)S(C)(=O)=O | 6.08
53 | Cc1ccc(CN2C(=NC(=O)CCC(=O)O)SC3CS(=O)(=O)CC32)cc1 (centres unmarked) | 0.971
54 | COc1ccc(S(=O)(=O)N2CCOCC2)cc1C(=O)NC1CCCCCC1 | -4.36
55 | COc1cccc(OC)c1C(=O)NCCc1ccccc1 | 15.1
56 | CC1SC(c2ccc(Cl)cc2)NC1=O (centres unmarked) | 13.2
57 | O=C1Nc2ccccc2C(=O)N2[C@H](c3ccccc3)[C@@H]3C(=O)N(Cc4ccccc4)C(=O)[C@@H]3[C@H]12 | -41.1
58 | CCCCCCC1CC(/C(C)=N\NC(N)=O)OC1=O (centres unmarked) | -53
59 | COc1ccc(C(c2nnnn2Cc2ccc(F)cc2)N2CCN(c3ccc(OC)cc3)CC2)cc1 (centres unmarked) | -7.57
60 | Cc1cc(NC(=O)CSc2nnc(C3CC3)n2N)c([N+](=O)[O-])cc1C | 24.3
61 | CCC(C)(C)C(=O)Nc1cc([N+](=O)[O-])ccc1F | 0.0472
62 | Cc1cccc(-n2c(-c3cccs3)nc3ccccc3c2=O)c1 | -5.98
63 | COc1ccc(Cl)cc1NC(=O)CN(c1ccccc1)S(=O)(=O)N(C)C | -10.1
64 | O=C(CSc1nnc2ccc(-c3ccc(F)cc3)nn12)NCC1CCCO1 (centres unmarked) | -42.8
65 | Cc1nnc(SCC(=O)N2CC(=O)Nc3ccccc32)s1 | 10.4
66 | COc1cc(C(C(=O)NC2CCCCC2)N(Cc2cccs2)C(=O)Cc2c[nH]c3ccccc23)cc(OC)c1OC (centres unmarked) | 7.94
67 | O=S1OC(c2ccccc2)c2cc(Cl)ccc21 (centres unmarked) | 11
68 | CNS(=O)(=O)c1cccc(C(=O)OCC(=O)Nc2ccc(Cl)cn2)c1 | -23.3
69 | CCCC(=O)N1CCN(c2ccc(NC(=O)c3sc4ccccc4c3Cl)cc2)CC1 | 11.7

Row | SMILES | hERG current change (%, negative = inhibition) at 10uM [%]
70 | CN(CC(=O)Nc1ccc(Cl)c(C(F)(F)F)c1)C(=O)c1cc(-c2ccncc2)nc2ccccc12 | 12.8
71 | O=C(CN(Cc1ccccc1F)C(=O)Cn1nnc(-c2cccs2)n1)NCC1CCCO1 (centres unmarked) | -20.5
72 | O=C(CN(c1ccccc1F)S(=O)(=O)c1ccccc1)N1CCCCCC1 | -6.07
73 | Cn1nnnc1SCC(=O)Nc1ccccn1 | 19.2
74 | COc1ccc(C)cc1NC(=O)CN(C)S(=O)(=O)c1ccc2c(c1)n(C)c(=O)c(=O)n2C | 3.01
75 | O=C(CN1C(=O)C2C3C=CC(C3)C2C1=O)Nc1cccc2c1CCCC2 (centres unmarked) | -16
76 | Cc1ccc(C)c(S(=O)(=O)N2CCCCC2CCNC(=O)C(=O)NC2CC2)c1 (centres unmarked) | -12.2
77 | Cc1cc(=O)n(CCc2ccccc2)c(O)c1C#N | 24.7
78 | O=C1CC[C@@H](O)CCN1CC[C@H](Sc1ccccc1)c1ccccc1 | -10.4
79 | CCCCc1ccc(S(=O)(=O)N/N=C(/C)c2ccncc2)cc1 | 16.7
80 | CCCOc1ccc(C2C(=O)N(C3CCCCC3)CC(=O)N2C2CC2)cc1OC (centres unmarked) | 0.517
81 | COc1cc(NS(=O)(=O)c2ccc(NC(=O)/C(=C/c3ccccc3Cl)NC(=O)c3ccccc3)cc2)nc(OC)n1 | 35.4
82 | O=C(C1CC1)N1CCCN(C(=O)C2CC2)CC1 | 16.3
83 | COc1cc2nc(NCCCN3CCN(C)CC3)n3nc(-c4ccccc4)nc3c2cc1OC | 0.193
84 | O=C(COc1ccc(Br)cc1)NCCCN1CCCC1=O | -14.3
85 | O=C(CN1C(=O)C2C3C=CC(C3)C2C1=O)NCc1ccccc1 (centres unmarked) | 5.59
86 | Cc1cc(OCC(=O)Nc2ccc(OCc3ccccc3)cc2)nc(C(C)C)n1 | 3.36
87 | CC1Cc2ccccc2N1C(=O)CSc1nnnn1Cc1ccccc1 (centres unmarked) | -24.1
88 | CCOC(=O)C1CCN(S(=O)(=O)c2ccccc2[N+](=O)[O-])CC1 | 2.39
89 | CCn1nc(C)c(NC(=O)/C=C/c2ccc(OC)c(COc3ccc(Br)cc3)c2)c1C | -6.09
